According to PubChem BioAssay AID504937 (National Center for Advancing Translational Sciences (NCATS), 2011):
Hit rate of the full screen: of about 340,000 compounds, about 20 (0.006%) were called active. This list was built around the results that the source calls inconclusive (neither active nor inactive); the mix of calls is not that of the screen. Calls follow the shape of the dose curve; as a rule, active = well fitted inhibition curve with a large enough effect; inconclusive = small, poorly fitted or top-dose-only effect; inactive = no such curve, though single readings can be large or run the other way. Potencies beside an inconclusive call are fits to weak or partial responses and may not hold up.

Biological target: Sphingomyelin phosphodiesterase (Homo sapiens) (UniProt P17405)
Test: Inhibitors of Secretory Acid Sphingomyelinase (S-ASM): qHTS
Conditions: placental ASM, HMU-PC fluorogenic substrate (series up to 57.5 µM), 60 min; activity change, negative = inhibition: at the top concentration
Procedure, shortened: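 qHTS format. ASM enzyme prepared from human placenta hydrolyses the fluorogenic substrate HMU-PC0 (9 uM final) over 60 min at 37 °C after a 10 min compound preincubation.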
Potency is read from the fitted curve at half-maximal effect; tags tell the direction and shape of the fitted curve.

Chain of UniProt P17405 (P17405 whole entry, looked up): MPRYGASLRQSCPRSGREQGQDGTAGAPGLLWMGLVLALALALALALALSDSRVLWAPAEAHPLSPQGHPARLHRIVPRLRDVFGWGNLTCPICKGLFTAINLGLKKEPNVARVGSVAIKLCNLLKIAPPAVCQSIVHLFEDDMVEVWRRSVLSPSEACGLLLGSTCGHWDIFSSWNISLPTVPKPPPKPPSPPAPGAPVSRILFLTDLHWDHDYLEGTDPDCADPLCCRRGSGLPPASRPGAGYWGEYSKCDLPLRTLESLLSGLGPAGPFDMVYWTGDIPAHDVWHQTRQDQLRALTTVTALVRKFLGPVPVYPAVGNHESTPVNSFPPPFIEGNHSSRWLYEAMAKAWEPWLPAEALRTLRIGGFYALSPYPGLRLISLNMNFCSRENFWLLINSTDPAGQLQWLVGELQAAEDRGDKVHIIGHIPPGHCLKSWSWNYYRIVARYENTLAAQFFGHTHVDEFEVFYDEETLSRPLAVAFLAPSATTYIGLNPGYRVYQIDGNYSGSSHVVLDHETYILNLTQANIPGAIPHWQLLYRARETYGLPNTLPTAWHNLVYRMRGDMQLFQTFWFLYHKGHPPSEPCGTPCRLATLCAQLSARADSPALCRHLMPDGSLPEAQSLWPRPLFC

Row | Compound | activity change, negative = inhibition | Potency
1 | O=C1CCN(Cc2ccccc2)CCN1[C@H](CO)Cc1ccccc1 | inactive: 7.06% | 
2 | O=C(CCCOc1ccc(Br)cc1)Nc1ccc(S(=O)(=O)N2CCOCC2)cc1 |  | inconclusive: 56.2 µM [inhibitor, single point]
3 | OC(CNCC(c1ccc(Cl)cc1Cl)c1c[nH]c2ccccc12)c1ccccc1 (stereo not drawn) |  | inconclusive: 89.1 µM [inhibitor, single point]
4 | Cc1cccc(NC(=O)c2ccc(S(=O)(=O)C(F)F)cc2)c1C | inactive: 4.53% | 
5 | O=C(N/N=C/c1ccncc1)c1cccc(S(=O)(=O)Nc2ccc(Cl)cc2)c1 |  | inconclusive: 126 µM [inhibitor, partial curve, poor fit]
6 | COc1cc(/C=N/NC(=O)COc2ccccc2[N+](=O)[O-])ccc1OC(=O)c1ccco1 |  | inconclusive: 70.8 µM [inhibitor, partial curve, poor fit]
7 | CCOc1cc(/C=N/NC(N)=S)cc(Br)c1OCc1ccccc1C |  | inconclusive: 100 µM [inhibitor, partial curve, poor fit]
8 | Cc1ccc2c(c1)c1c(n2CC(O)Cn2c(C)nc3ccccc32)/C(=N\O)CCC1 (stereo not drawn) |  | inconclusive: 79.4 µM [inhibitor, single point]
9 | Cc1cccc(N=C2NC(=O)/C(=C/c3cn(C)c4ccccc34)S2)c1 |  | inconclusive: 112 µM [inhibitor, partial curve, poor fit]
10 | Cc1cccc(NC(=O)CCCN2C(=O)c3cccc4cccc(c34)C2=O)c1 |  | inconclusive: 70.8 µM [inhibitor, partial curve, poor fit]
11 | Oc1ccc(Cl)cc1/C=C/c1ccc2cccc(O)c2n1 |  | inconclusive: 200 µM [inhibitor, partial curve, poor fit]
12 | CCOC(=O)c1sc(NC(=O)CSc2n[nH]c(-c3ccccc3)n2)c(C#N)c1C |  | inconclusive: 89.1 µM [inhibitor, partial curve]
13 | COc1cccc(-c2cc(C(=O)N/N=C/c3ccco3)c3ccccc3n2)c1 |  | inconclusive: 79.4 µM [inhibitor, single point]
14 | Cc1c(NC(=O)c2ccc([N+](=O)[O-])o2)cccc1-c1nc2ncccc2o1 | inactive: 0.317% | 
15 | O=C(Nc1ccc(F)c(Cl)c1)c1ccc2c(=O)n3c(nc2c1)CCCCC3 |  | inconclusive: 89.1 µM [inhibitor, single point]
16 | O=C(NCC(=O)N1CCN(Cc2ccccc2)CC1)c1ccc(Cl)cc1 | inactive: -7.56% | 
17 | Cc1cc(N/N=C/c2ccccc2Cl)nc(NCc2ccccc2)n1 |  | inconclusive: 89.1 µM [inhibitor, single point]
18 | CCOc1ccccc1N1CCN(C(=O)NCc2ccc(Cl)cc2)CC1 | inactive: 1.41% | 
19 | O=C(Nc1ccc2oc(-c3ccccc3F)nc2c1)c1ccc2c(c1)OCCO2 |  | inconclusive: 224 µM [inhibitor, partial curve, poor fit]
20 | CCN(CC)CCOC(=O)c1ccc(NC(=O)CCCN2C(=O)S/C(=C/c3ccc(OC)cc3)C2=S)cc1 |  | inconclusive: 100 µM [inhibitor, single point]
21 | CNc1nc(N/N=C/c2cc([N+](=O)[O-])ccc2F)nc(Nc2ccccc2)n1 | inactive: -2.4% | 
22 | Cc1ccc(C2/C=C\CC(NC(=O)OCC3c4ccccc4-c4ccccc43)CC(=O)N2Cc2ccccc2)cc1 (stereo not drawn) |  | inconclusive: 126 µM [inhibitor, partial curve, poor fit]

Row | Compound | activity change, negative = inhibition | Potency
23 | O=C(c1ccc(-n2c(SCc3cccc(F)c3)nc3ccccc3c2=O)cc1)N1CCOCC1 | inactive: -10.5% | 
24 | CCCc1cc(C(=O)Nc2sc(C)c(C)c2C(=O)OCC)no1 | inactive: 24.9% | 
25 | Brc1cccc(-c2nc3cccnc3nc2-c2cccc(Br)c2)c1 |  | inconclusive: 28.2 µM [inhibitor, partial curve, poor fit]
26 | COc1ccc(-c2cc(C(F)(F)F)nc(SCC(=O)NCc3cnn(C)c3C)n2)cc1OC | inactive: 398% | 
27 | COc1cccc(C(=O)Nc2ccc3c(cc2=O)[C@@H](NC(C)=O)CCc2cc(OC)c(OC)c(OC)c2-3)c1 |  | inconclusive: 100 µM [inhibitor, partial curve, poor fit]
28 | CNS(=O)(=O)c1cccc(C(=O)OCC(=O)c2c(N)n(Cc3ccccc3)c(=O)n(C)c2=O)c1 |  | inconclusive: 10000 µM [inhibitor, partial curve, poor fit]
29 | CN1C(=O)c2cccc3c(Br)ccc(c23)C1=O | inactive: -2.43% | 
30 | Cc1cc2ncn(C(=O)c3c(-c4ccccc4Cl)noc3C)c2cc1C |  | inconclusive: 251 µM [inhibitor, partial curve, poor fit]
31 | Cc1ccc(C2=N/C(=C/c3cccs3)C(=O)N2Nc2ccccc2)cc1 |  | inconclusive: 89.1 µM [inhibitor, single point]
32 | COc1cc2c(cc1OC)C(COc1cccc(C(F)(F)F)c1)NCC2 (stereo not drawn) | inactive: 0.325% | 
33 | COc1ccc(N/C(N)=N/c2nc(C)cc(C)n2)c(OC)c1 | inactive: 5.49% | 
34 | CCOC(=O)/C(=N\Nc1ccc(OC)cc1)c1csc(Nc2ccccc2)n1 |  | inconclusive: 79.4 µM [inhibitor, partial curve, poor fit]
35 | CN(C)c1ccc(C=c2c3cc([N+](=O)[O-])ccc3n3c2cc(-c2ccccc2)[n+]3C)cc1 |  | inconclusive: 70.8 µM [inhibitor, single point]
36 | O=C1c2ccccc2C2=Nc3ccccc3SC(c3ccc(Cl)cc3)C12 (stereo not drawn) | inactive: -19.9% | 
37 | CCc1cccc(CC)c1-n1c(SCC(=O)N2CCc3ccccc3C2)nnc1-c1cccnc1 | inactive: 11.1% | 
38 | CCc1nc(SCC(=O)Nc2ccccc2OC)c2c(C)c(C)sc2n1 | inactive: -2.75% | 
39 | O=C(COC(=O)C1CC1)Nc1ccc(N=Nc2ccccc2)cc1 |  | inconclusive: 141 µM [inhibitor, partial curve, poor fit]
40 | NC(=O)c1cc(-c2ccccc2)nc(N2CCCCCC2)n1 | inactive: 8.73% | 
41 | CC(C)CC(=O)N1CCN(c2ccc([N+](=O)[O-])c(NCc3ccccc3)c2)CC1 |  | inconclusive: 89.1 µM [inhibitor, single point]
42 | CCOC(=O)c1nn(-c2ccc(Cl)cc2)c2nc(CC)c(C#N)c(=O)n12 | inactive: -5.59% | 
43 | Cc1ccc(S(=O)(=O)N2CC3(C)CN(S(=O)(=O)c4ccc(C)cc4)CC(C)(C2)C3=O)cc1 | inactive: 3.55% | 
